About 2,100 (0.6%) of roughly 350,000 compounds were called active. Inconclusive means that the source gave no clear call. Such entries were picked first, then a sample of the others.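 The calls were made as follows: active = activity change of -60% or lower, but not beyond a set lower limit; inconclusive = change between -60% and -40%, or beyond the set limit; inactive = change above -40%.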
The molecules below were run against Relaxin receptor 1 (Homo sapiens) (UniProt Q9HBX9) (assay: qHTS Assay for Antagonists of the Relaxin Receptor RXFP1). Details: HEK293-RXFP1, relaxin-stimulated cAMP HTRF, 30 min; at 57.5 µM; active compounds read low.
% is scaled to controls: 0 for no effect and ±100 for the full control effect.

UniProt Q9HBX9, sequence (Q9HBX9 whole entry, looked up): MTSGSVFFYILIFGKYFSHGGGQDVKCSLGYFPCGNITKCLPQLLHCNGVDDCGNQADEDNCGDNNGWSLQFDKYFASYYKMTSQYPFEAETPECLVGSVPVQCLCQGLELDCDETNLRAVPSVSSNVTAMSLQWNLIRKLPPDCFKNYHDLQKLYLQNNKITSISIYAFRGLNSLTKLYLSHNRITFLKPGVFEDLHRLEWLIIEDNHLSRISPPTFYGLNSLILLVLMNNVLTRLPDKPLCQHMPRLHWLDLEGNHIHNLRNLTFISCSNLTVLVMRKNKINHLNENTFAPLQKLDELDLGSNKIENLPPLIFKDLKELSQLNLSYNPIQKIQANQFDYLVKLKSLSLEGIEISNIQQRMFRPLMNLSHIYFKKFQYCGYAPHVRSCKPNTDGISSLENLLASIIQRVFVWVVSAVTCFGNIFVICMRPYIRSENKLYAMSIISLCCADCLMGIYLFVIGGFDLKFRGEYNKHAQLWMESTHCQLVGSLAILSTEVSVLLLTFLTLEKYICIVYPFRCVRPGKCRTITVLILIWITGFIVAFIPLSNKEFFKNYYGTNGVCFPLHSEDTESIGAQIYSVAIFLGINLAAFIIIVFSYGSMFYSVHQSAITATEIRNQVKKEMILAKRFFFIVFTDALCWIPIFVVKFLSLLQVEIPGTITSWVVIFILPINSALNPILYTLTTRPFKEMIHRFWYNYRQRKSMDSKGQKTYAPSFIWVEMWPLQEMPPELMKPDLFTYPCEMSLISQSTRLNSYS

Structure (SMILES) | activity change, negative = inhibition
CC/C(C)=N/Nc1nc2c(c(=O)[nH]c(=O)n2C)n1CCc1ccccc1 | inconclusive: -44.7%
CCCCN(CC)C(=O)c1ccc2c(c1)NC(=O)c1ccccc1S2 | inactive: 0.8%
Cc1cc(C)n2cc(CSc3nnnn3C)nc2n1 | inactive: -9.38%
O=S(=O)(c1c(Cl)cc(Br)cc1Cl)N1CCN(C(=S)NC2CC2)CC1 | inconclusive: -42.2%
CCn1c(C)c(C)c2cc(C(=O)N3CCN(c4ccccc4)CC3)ccc21 | inconclusive: -43%
CCCCCCCCCCOC(=O)Cn1c(COc2ccccc2C)[n+](C)c2ccccc21 | inconclusive: -57.8%
COc1ccc(N(CC(C)C)S(=O)(=O)c2nnc(NC(=O)c3ccco3)s2)cc1 | inconclusive: -48.7%
CCOC(=O)Cn1nc(/C=C/c2ccc(C)cc2)ccc1=O | inactive: -7.63%
CCCCc1ccc(N/C(N)=N/c2nc(C)cc(C)n2)cc1 | inconclusive: -42.1%
Cc1ccccc1OCCc1c(C)[nH]c(=S)[nH]c1=O | inconclusive: -47.2%
CC(C)Oc1cccc(C(=O)Nc2ccc(Br)cc2F)c1 | inconclusive: -49.3%
CN(C)c1ccc(CNS(=O)(=O)c2ccc(-c3cc(C(F)(F)F)on3)s2)cc1 | inactive: -2.1%
Cc1ccccc1OCC(O)CNC1CCC(NCC(O)COc2ccccc2C)CC1 (stereo unspecified) | active: -101%
Cc1cc(C)c(NC(=O)C2CCCN2C)c(C)c1 (stereo unspecified) | inactive: -8.54%
CC(NC(=O)CC(c1ccccc1)c1cc(Cl)ccc1O)c1ccccc1 (stereo unspecified) | inconclusive: -45%
COc1ccc2oc(C(=O)N3CCN(C(c4ccccc4)c4ccccc4)CC3)c(C)c2c1 | inconclusive: -40.8%
O=C(N/C(=C/c1cccc(Br)c1)c1nc(=S)[nH][nH]1)c1ccccc1 | inconclusive: -49.1%
CCOC(=O)c1c(C)n(-c2ccccc2)c2ccc(OC(=O)COc3ccc(Cl)cc3)cc12 | inactive: -2.06%
Cc1cccc(CSc2nnc(CCCCCNC(=O)OC(C)(C)C)o2)c1 | inconclusive: -52.3%
CN(C)CCCNc1cc(N2CCN(C3CCCCC3)CC2)c2noc3c2c1C(=O)c1ccccc1-3 | inconclusive: -40.4%
COc1ccc(-[n+]2c(C)cc(/C=C3\Sc4ccccc4N3C)cc2C)cc1 | inconclusive: -40.4%
COc1ccc(S(=O)(=O)c2c(Nc3ccccc3F)sc(C(=O)c3cccc(OC)c3)c2N)cc1 | inactive: -3.16%

Structure (SMILES) | activity change, negative = inhibition
O=C(NNC(=S)Nc1ccccc1)c1cc(-c2cccnc2)nc2ccccc12 | active: -60.7%
CCc1cccc2c(C(=O)COC(=O)c3nccnc3N)c[nH]c12 | inactive: -11.6%
Cc1cccc(C(=O)Oc2ccc(/C=N/NC(=O)c3cc(O)cc(O)c3)cc2)c1 | inconclusive: -48.4%
CCOC(=O)C1CCCN(CC(=O)Nc2nc(-c3ccccc3)cs2)C1 (stereo unspecified) | inconclusive: -47.9%
COc1cccc(CN(C)C(=O)c2cc(-c3cccs3)nc3ccccc23)c1 | inconclusive: -53.4%
CCc1ccc(CN(C)CC(=O)Nc2ccc3c(c2)CCC3)cc1 | inactive: -5.1%
Cc1cc(C)c(C(=O)CSc2nnc(N)s2)cc1C | inactive: 21.5%
O=C(NCCCN1CCCC1)[C@H](CSCc1ccccc1)N1Cc2ccccc2C1=O | active: -60.1%
Cc1ccc(-n2ncc(C(=O)NCCN3CCc4ccccc4C3)c2C2CCN(C(=O)OC(C)(C)C)CC2)cc1C | inconclusive: -55.3%
CCCCC(=O)Nc1c(C(=O)N2CCN(c3ccccc3F)CC2)oc2ccccc12 | inconclusive: -41.6%
Cc1cccc(NCc2ccc([N+](=O)[O-])s2)c1 | inactive: -5.99%
O=C(c1nnsc1S(=O)c1ccc(Cl)cc1)N1CCOCC1 (stereo unspecified) | inactive: -10.2%
CCN(c1ccccc1)S(=O)(=O)c1nnc(NC(=O)c2ccccc2OC)s1 | inconclusive: -47.5%
CN(C)CCCNC(=O)/C(=C\c1ccc(-c2ccc(Br)cc2)o1)NC(=O)c1ccccc1 | inconclusive: -48.6%
CCOc1ccc(NC(=O)N2CC3CCCN3c3ccccc32)cc1 (stereo unspecified) | active: -60.8%
Cc1sc2ncnc(N3CCC(C(=O)NNC(=O)COc4ccccc4Cl)CC3)c2c1C | inconclusive: -50.8%
CC(=O)Nc1ccc(NC(=O)[C@@H]2CCCC[C@@H]2C(=O)O)cc1 | inconclusive: -40.6%
O=S(Cc1ccccc1)CC(O)(c1ccc(Cl)cc1)c1ccc(Cl)cc1 (stereo unspecified) | inconclusive: -54.4%
Cc1ccc(-c2onc(C)c2C)cc1S(=O)(=O)N1CCN(c2ccccc2F)CC1 | inactive: -3.46%
O=C(Cc1ccccc1F)Nc1nc(-c2ccc(F)cc2)cs1 | active: -93%
O=S(=O)(NCC(c1cccs1)S(=O)(=O)c1ccccc1)c1ccccc1 (stereo unspecified) | inactive: 4.55%
CCOc1ccccc1NC(=O)c1c2c(nc3ccccc13)C(=O)N(C1CCCCC1)C2 | inconclusive: -46.1%

Structure (SMILES) | activity change, negative = inhibition
CC(C)CCOP(=O)(c1ccc(N(C)C)cc1)C(O)c1ccc(Cl)cc1Cl (stereo unspecified) | inconclusive: -46.7%
Cc1cc(C)c(S(=O)(=O)NCCc2sc3nc(-c4ccc(F)cc4)nn3c2C)c(C)c1 | inactive: -21%
COc1ccc(C(=O)N=C2SC3CS(=O)(=O)CC3N2c2ccc(C(C)=O)cc2)cc1 (stereo unspecified) | inconclusive: -48.1%
COc1ccc(C(=Cc2ccccc2)C(=O)O)cc1 | inconclusive: -57.9%
NC(=O)c1ccsc1NC(=O)CSc1nnc(Nc2ccccc2)s1 | inactive: -8.02%
CCCCOC(=O)CSc1n[nH]c(=O)[nH]c1=O | inactive: -4.78%
CC(=O)N1CCN(S(=O)(=O)c2cccc(C(=O)Nc3ccc4c(c3)OCO4)c2)CC1 | inactive: -4.74%
Cc1ccc(C(=O)Nc2c(C)n(C)n(-c3ccccc3)c2=O)cc1S(=O)(=O)N1CCOCC1 | inactive: 4.85%
OCCN1CCN(C2Cc3cc(Cl)ccc3Sc3ccc(Cl)cc32)CC1 (stereo unspecified) (tested in a mixture with another compound) | inconclusive: -44.6%
O=C(NCc1ccccc1)C(=O)Nc1c2c(nn1-c1ccccc1)CSC2 | inconclusive: -46.5%
Cc1ccc(C)c(N2CCN(S(=O)(=O)c3c(C)noc3/C=C/N(C)C)CC2)c1 | inconclusive: -41.3%
CC1(C)Cc2c(C#N)c(N)sc(=S)c2CS1 | inactive: 2.01%
Cc1cc(C)nc(SCC(=O)NN)n1 | inconclusive: -48.7%
Cc1cc(C)n(-c2nc(SCCN(C)C)c3c4c(sc3n2)CCCC4)n1 | active: -60.9%
CCCOc1ccc(-c2c(C(=O)N/N=C(\C)COc3ccccc3)nnn2-c2nonc2N)cc1 | inconclusive: -51.6%
Cn1c(-c2ccccc2)cc2ccccc21 | inconclusive: -41.6%
COc1ccc(C(CC(=O)O)NC(=O)Cc2ccccc2)cc1OC (stereo unspecified) | inactive: 14.2%
CC(=O)Nc1ccc(NC(=O)c2nc(S(=O)(=O)Cc3ccccc3)ncc2Cl)cc1 | inconclusive: -48.2%
Cc1ccc(S(=O)(=O)Nc2cccc(C(=O)NCC3CCCO3)c2)cc1F (stereo unspecified) | inactive: -4.99%
Cc1ccc2c(c1)c1c3n2CCN(C(=O)c2cccc(C(F)(F)F)c2)C3CCC1 (stereo unspecified) | inconclusive: -51.5%
COc1cccc(Cn2c(-c3nonc3NC(C)=O)nc3ccccc32)c1 | inconclusive: -42.7%
c1ccc2c(Nc3nc(N4CCOCC4)c4ccccc4n3)cccc2c1 | inconclusive: -42.7%

Structure (SMILES) | activity change, negative = inhibition
Clc1ccc(NCc2nc3ccccc3n2CCOc2ccccc2)cc1 | active: -60.9%
COc1ccccc1C(=O)NC(=S)Nc1ccc(NC(=O)c2ccco2)cc1 | inactive: -31.4%
N#C/C(=C\c1ccc(N2CCOCC2)o1)C(=O)NCCc1ccccc1 | inconclusive: -51.8%
Clc1ccccc1CN1CCc2nc(N3CCN(c4ncccn4)CC3)ncc2C1 | inconclusive: -54.3%
CCOC(=O)C1=C(C)N(C)C(C)=C(C(=O)OCC)C1c1ccc(Cl)cc1 | active: -60.6%
CCC(O)C1CCN(Cc2cn(-c3ccc(OC)cc3)nc2-c2cccc(F)c2)CC1 (stereo unspecified) | inconclusive: -47.3%
O=C(/C=C/c1ccc(OCc2cccc(Cl)c2)cc1)N1CCOCC1 | inconclusive: -45.3%
CC(=O)N(CCCN(C)C)c1nc2ccc(C)cc2s1 | inconclusive: -49.1%
COc1ccc(CCNC(=O)/C(=C/c2cccnc2)NC(=O)c2ccccc2)cc1 | inconclusive: -42.4%
COc1ccc(CSc2nnc(C)n2N)cc1[N+](=O)[O-] | inconclusive: -46%
CCS(=O)(=O)c1ncc(Cl)c(C(=O)NCc2ccccc2)n1 | inconclusive: -49.7%
COc1cc(CN2CCCC(C(=O)N3CCc4ccccc4C3)C2)cc(OC)c1OC (stereo unspecified) | inconclusive: -40.2%
CN(CC(=O)Nc1ccc(OC(F)(F)F)cc1)C1CCCCC1 | inconclusive: -43.3%
Cn1c2ccccc2c2ccc3c(c21)C(=O)C=CC3=O | inconclusive: -56.9%
CCN(CC)CCN(C(=O)c1ccc2c(c1)CCCC2)c1nc2ccc(OC)cc2s1 | inconclusive: -45.5%
COc1cc(OC)c(N(C)S(=O)(=O)c2cccc(C(=O)Nc3nnc(C4CC4)s3)c2)cc1Cl | inactive: 4.78%
CCOC(=O)N1CCc2c(sc(NCc3cccs3)c2C(=O)Nc2ccc(OC)cc2OC)C1 | inconclusive: -49.2%
COc1ccc(C2C(=O)N(C3CCC(C)CC3)CC(=O)N2C2CCCC2)cc1OC (stereo unspecified) | inactive: -2.07%
CCCCNC(=O)c1cnc2sc(N3CCCCCC3)nn2c1=O | inconclusive: -41.1%
COc1ccc(NC(=O)c2cc([N+](=O)[O-])ccc2N2CCCC2)cc1S(N)(=O)=O | inactive: -3.24%
